Data taken from paper PMC4336329 (PLoS ONE, 2015).
About 2,200 (0.71%) of roughly 310,000 compounds showed an effect of 50% or more. Effects have a minus sign here. Some of the results follow.

Molecular target: human ether-à-go-go-related gene (hERG) potassium channel (human, UniProt Q12809)
Experiment: primary screen, population patch clamp on CHO cells stably expressing hERG

Sequence of human ether-à-go-go-related gene (hERG) potassium channel (Q12809 whole entry, looked up): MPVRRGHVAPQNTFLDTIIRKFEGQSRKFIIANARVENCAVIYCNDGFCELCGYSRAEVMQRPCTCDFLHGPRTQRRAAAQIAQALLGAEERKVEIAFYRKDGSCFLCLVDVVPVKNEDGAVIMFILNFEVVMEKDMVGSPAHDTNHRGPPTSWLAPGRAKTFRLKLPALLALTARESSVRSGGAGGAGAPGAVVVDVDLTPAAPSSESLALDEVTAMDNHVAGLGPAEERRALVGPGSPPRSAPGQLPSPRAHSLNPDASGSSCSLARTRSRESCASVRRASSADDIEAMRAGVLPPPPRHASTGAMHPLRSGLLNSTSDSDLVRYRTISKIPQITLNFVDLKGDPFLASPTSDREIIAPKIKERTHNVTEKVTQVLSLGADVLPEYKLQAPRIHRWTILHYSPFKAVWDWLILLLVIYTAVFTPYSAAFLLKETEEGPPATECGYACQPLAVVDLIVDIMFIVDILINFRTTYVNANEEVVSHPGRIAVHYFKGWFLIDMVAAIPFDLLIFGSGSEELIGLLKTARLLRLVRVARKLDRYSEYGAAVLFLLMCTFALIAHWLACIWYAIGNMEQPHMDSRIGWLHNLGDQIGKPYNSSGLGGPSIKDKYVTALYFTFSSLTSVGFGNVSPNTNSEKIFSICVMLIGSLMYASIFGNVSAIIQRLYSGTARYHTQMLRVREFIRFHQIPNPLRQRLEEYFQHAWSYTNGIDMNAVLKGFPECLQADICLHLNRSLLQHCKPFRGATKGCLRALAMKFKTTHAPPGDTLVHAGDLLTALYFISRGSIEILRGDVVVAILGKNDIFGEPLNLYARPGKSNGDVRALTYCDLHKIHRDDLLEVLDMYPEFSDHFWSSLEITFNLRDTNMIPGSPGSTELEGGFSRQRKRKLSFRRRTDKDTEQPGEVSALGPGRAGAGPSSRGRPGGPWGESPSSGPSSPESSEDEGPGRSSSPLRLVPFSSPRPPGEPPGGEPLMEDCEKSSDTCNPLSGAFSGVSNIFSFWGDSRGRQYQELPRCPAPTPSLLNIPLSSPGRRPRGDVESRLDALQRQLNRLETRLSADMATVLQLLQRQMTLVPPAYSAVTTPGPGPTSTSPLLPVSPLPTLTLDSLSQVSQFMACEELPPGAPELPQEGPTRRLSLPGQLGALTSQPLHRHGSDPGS

Row | SMILES | hERG current change (%, negative = inhibition) at 1uM [%]
1 | CCN(Cc1ccccc1)C(=O)C(=O)c1cn(CC(=O)N2CCCC2)c2ccccc12 | 9.09
2 | CCOc1ccccc1NC(=O)CCCn1cc([N+](=O)[O-])cn1 | 7.46
3 | COc1ccc(C(=O)NCCCc2ccccc2)cc1OC | 11.4
4 | Cc1cc(C(=O)COc2cccc(-n3cnnn3)c2)c(C)n1-c1ccccc1 | 13.6
5 | Cc1ccc(S(=O)(=O)C(C)C(=O)c2ccc3c(c2)OCCO3)cc1 (stereo not shown) | -12.7
6 | CCCN(CC(=O)Nc1ccc(F)c(F)c1F)C(=O)c1cc([N+](=O)[O-])ccc1N1CCOCC1 | -19.8
7 | CCN1CCN(c2ccc(NC(=O)c3ccc(Cl)c(N4CCCC4=O)c3)cc2)CC1 | 9.94
8 | NC(=O)[C@H]1CC2(CC(c3cccc(NC(=O)COc4ccc(Cl)cc4)c3)=NO2)CN1C(=O)CC(c1ccccc1)c1ccccc1 (stereo partly shown) | 8.15
9 | O=c1c2cccnc2n(-c2ccccc2)n1Cc1ccc(Cl)cc1 | 11.6
10 | COc1ccccc1/C=C/CN1CCC(Oc2ccc(C(=O)N3CCCCC3)cc2)CC1 | 7.23
11 | CCc1ccc(C(C)NC(=O)c2ccc3c(c2)OCO3)cc1 (stereo not shown) | 9
12 | CC(=O)N1N=C(c2cccc(NS(=O)(=O)c3ccc(C)cc3)c2)CC1c1ccco1 (stereo not shown) | 20.7
13 | CCOc1ccc(NC(=O)N(C2CCCCCC2)C2CCN(C(C)=O)CC2)cc1 | 8.07
14 | CCOc1ccccc1NC(=S)NCc1cccn1C | 4.25
15 | Cc1ccc(C)c(NS(=O)(=O)c2ccc(OCC(=O)N3CCCC3)cc2)c1 | -3.59
16 | COc1ccc(NC(=O)CCS(=O)(=O)c2ccc3c(c2)CCN3C(C)=O)cc1 | 18.3
17 | c1ccc(OCc2nn3c(-c4cccnc4)nnc3s2)cc1 | -11.4
18 | COc1ccc(CCN(Cc2cccs2)S(=O)(=O)c2ccc(-n3cnnn3)cc2)cc1OC | -17.8
19 | Cn1cnnc1SC1CCCCC1NS(=O)(=O)c1ccc(Cl)cc1 (stereo not shown) | 12.9
20 | O=C(Nc1ccnn1C1CCN(Cc2ccc(O)c(Cl)c2)CC1)C1CCCC1 | -6.39
21 | O=C(CSc1nnc(C2COc3ccccc3O2)o1)Nc1ccc(F)cc1Cl (stereo not shown) | 13.3
22 | Cc1ccc(NC(=O)CN(C)C(=O)c2ccc(Br)o2)cc1 | 12.2

Row | SMILES | hERG current change (%, negative = inhibition) at 1uM [%]
23 | CCCC(=O)Nc1cccc(-c2cn3ccsc3n2)c1 | -4.48
24 | CCn1cc(C(=O)NCCCN(CC(C)C)CC(C)C)c(=O)c2cc(S(=O)(=O)N(C)C3CCCCC3)ccc21 | -6.68
25 | Cc1ccc(S(=O)(=O)N2CCOCC2)cc1NC(=O)CNCc1cccnc1.O=C(O)C(=O)O | 7.98
26 | c1ccc(NC2=NCCN2CC2CCC2)cc1 | 6.07
27 | Cc1ccsc1C(=O)C1CCCN(Cc2cnc(N(C)C)s2)C1 (stereo not shown) | 1.44
28 | Cc1ccc(-n2c(Cc3ccccc3)n[nH]c2=S)c(C)c1 | 16
29 | O=C(NCc1ccc(Cl)cc1)c1cccc(NC(=O)c2ccccc2)c1 | -8.97
30 | C/C(NC(=O)c1ccccc1)=C1/C(=O)CC2C1C2(C)C (stereo not shown) | 0.19
31 | CCc1nn(C(C)C(=O)NCCc2ccc(OC)c(OC)c2)c(=O)c2cc3occc3n12 (stereo not shown) | 7.83
32 | Cc1ccc(OCC(=O)N/N=C\c2c(C)n(C)c3ccccc23)c([N+](=O)[O-])c1 | 14.5
33 | Cc1ccc(Cn2nc(C)c(NC(=O)CSc3n[nH]c(C)c3[N+](=O)[O-])c2C)cc1 | 16.8
34 | Cc1cc(OCCSc2nnc(-c3cccs3)n2C)ccc1Cl | 6.45
35 | Cc1ccc(CCNC(=O)C2CCC(=O)N2C(C)C)cc1 (stereo not shown) | 15.7
36 | Cc1noc(C)c1C(=O)Nc1ccc(F)c(F)c1 | 14.5
37 | CCN(CCn1cccn1)Cc1cn[nH]c1-c1ccc(-c2ccccc2)cc1 | 17.6
38 | COC(=O)c1cccc(C(=O)N2CCCC(C(=O)c3ccccc3OC)C2)c1 (stereo not shown) | -8.92
39 | CCOC(=O)Cc1csc(NC(=O)c2cccc(Cl)c2)n1 | 7.67
40 | Cc1ccc(OCCCCn2ccnc2C)c(C)c1.O=C(O)C(=O)O | 2.16
41 | O=C(COC(=O)c1cnccn1)c1ccc(C2CCCCC2)cc1 | 8.28
42 | Cc1cccc(OCC(=O)O/N=C(\N)Cc2cccs2)c1 | 12
43 | COc1cc(NC(=O)CCc2c(C)[nH]c(=O)c(C#N)c2C)cc(OC)c1 | 13.3
